# Laboratory results taken from the supplement of paper PMC3334620.
# Whole data set: some 33,000 sequences, median “E-score (-0.5 to 0.5)” near -0.011, cut for the highest 2% near 0.28. The list shows a part of the results.
# Molecular target: T1, Gcr1 (UniProt P07261)
# T1 sequence: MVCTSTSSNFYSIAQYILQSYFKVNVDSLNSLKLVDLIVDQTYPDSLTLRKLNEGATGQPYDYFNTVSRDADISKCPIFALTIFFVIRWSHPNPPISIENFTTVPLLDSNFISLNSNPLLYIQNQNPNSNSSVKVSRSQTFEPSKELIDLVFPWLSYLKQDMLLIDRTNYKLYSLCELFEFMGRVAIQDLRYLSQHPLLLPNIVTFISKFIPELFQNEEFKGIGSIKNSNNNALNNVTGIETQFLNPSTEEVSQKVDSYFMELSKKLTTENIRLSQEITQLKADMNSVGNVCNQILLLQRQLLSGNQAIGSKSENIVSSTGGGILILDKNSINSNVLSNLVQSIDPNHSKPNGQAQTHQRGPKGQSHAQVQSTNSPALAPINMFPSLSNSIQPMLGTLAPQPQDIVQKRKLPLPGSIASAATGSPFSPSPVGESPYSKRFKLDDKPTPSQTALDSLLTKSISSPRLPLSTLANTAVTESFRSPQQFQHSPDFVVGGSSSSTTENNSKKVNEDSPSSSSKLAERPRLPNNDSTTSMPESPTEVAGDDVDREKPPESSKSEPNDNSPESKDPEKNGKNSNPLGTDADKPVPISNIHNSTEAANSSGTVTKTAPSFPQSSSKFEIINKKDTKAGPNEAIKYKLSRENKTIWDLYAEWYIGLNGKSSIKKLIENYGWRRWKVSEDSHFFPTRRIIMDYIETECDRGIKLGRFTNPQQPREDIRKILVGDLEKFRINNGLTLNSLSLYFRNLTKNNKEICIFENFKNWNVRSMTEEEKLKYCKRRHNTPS
# Test: PBM E-score (8-mer binding enrichment) (E-score (-0.5 to 0.5)); higher = stronger / more preferred TF binding; most listed sequences are background and not binding sites
# Conditions: protein concentration: 100 nM; construct: GST-full length
# Method: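 Universal 'all 10-mer' protein binding microarrays (Agilent AMADID 015681) probed with GST-tagged S. cerevisiae TFs (full-length or DBD) made by in vitro transcription/translation (PURExpress), about 100-200 nM. Bound TF was detected with fluorescent anti-GST. Each ungapped 8-mer (which stands for itself and its reverse complement) is scored by the PBM enrichment score (E-score), a modified Wilcoxon-Mann-Whitney statistic from -0.5 to +0.5, computed with the Universal PBM Analysis Suite. Scale: above 0.35 generally sequence-specific binding.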
row,Sequence,PBM E-score
1,CCTAACGA,-0.102
2,AAAAAGAT,0.0952
3,CTCCCCGC,0.196
4,AGGAAGTA,-0.0761
5,CGGCTAAA,0.0376
6,GACGCGTC,0.26
7,AAAAGGGA,0.0498
8,GTATACCA,0.0647
9,AAACACTA,0.0508
10,ACATTGCA,-0.0715
11,ACGTTCTG,-0.0683
12,AACGCCCG,0.0165
13,CATGAAGC,0.0163
14,CGGTTAGA,-0.123
15,CCCCGAGG,-0.0357
16,AAACTTGT,0.0404
17,CGATCTCA,-0.181
18,GGGCCGAA,-0.206
19,CTAGAACC,0.121
20,ATCCGCAT,0.155
21,GCGAGGAA,0.0756
22,GGCTCCAC,0.248
23,AGTCAAGG,-0.125
24,ACACTTAC,-0.192
25,GCTCGAAC,-0.292

row,Sequence,PBM E-score
1,GATGGTCC,-0.0114
2,ACGCAATA,0.188
3,TATGTTGA,-0.114
4,CCAGGACA,-0.0866
5,GACGTCCA,0.0839
6,GTCCAAAC,0.16
7,ACTCACAC,-0.0542
8,AACAGAGG,0.118
9,CCGTCCGC,-0.171
10,GATGAGAA,-0.138
11,CAGGGTGC,0.234
12,AAGCAACA,-0.0142
13,AGTTCGCG,0.0674
14,ATAAAGCG,0.0542
15,CGTACGTC,-0.277
16,AAATAGAC,0.23
17,AGAGGTTG,0.113
18,GTACCATA,0.0685
19,GGGGAGGA,-0.151
20,AATCGGAA,0.16
21,AAAACCGT,0.0768
22,GCAGGGAA,-0.0427
23,CTTGTAAA,0.0987
24,CGCCAACA,0.17
25,CTTCTACA,0.126

row,Sequence,PBM E-score
1,GAACCTTA,0.115
2,ATTTCGTG,0.0974
3,AGGACCCG,0.0549
4,ATGGTTGG,-0.0547
5,AGTAATGG,-0.0258
6,GGGATCTA,0.097
7,GGGTTCAC,-0.216
8,CATAGACC,-0.0977
9,ATGCTGTA,0.0584
10,GAGTATCC,-0.0775
11,CAGCCCTA,0.17
12,AATATATA,0.0542
13,ATTTGTAA,0.149
14,TCGTCCCA,-0.0947
15,ATAGCCGA,3e-05
16,AACGCAGT,-0.173
17,CTAACAGC,0.0545
18,ACAATTCT,0.109
19,GCTGTAGA,-0.0143
20,CTCAGTGA,-0.197
21,AAGTGCTC,-0.0799
22,ACCACCAA,0.0926
23,ATGTGAAA,-0.0826
24,CAGTAGTA,-0.0203
25,TCGCATCA,0.0304

row,Sequence,PBM E-score
1,GAGTATCA,-0.209
2,ATGATCAG,-0.0733
3,CCTGATAC,-0.0282
4,ACAAGCGA,-0.191
5,GAGCGGCC,0.118
6,CCACTGCG,0.135
7,ATCTCGTC,-0.0648
8,AGCCCAAG,-0.0551
9,AAAATAGT,0.0219
10,AAATCTGT,-0.0402
11,CAGTGTTC,0.04
12,ATGTTCGC,-0.0946
13,AAAGCGGT,0.0425
14,AGGTCCAC,-0.11
15,CAAGAGGC,0.107
16,CCTTCGAC,-0.0984
17,GATCTCTA,-0.121
18,ACTTAACG,-0.138
19,CACGCTGC,0.236
20,CGGCACGA,-0.167
21,ACACCTAG,-0.0482
22,CATGTTCC,-0.00272
23,GCGTGCTA,-0.0687
24,ATAGATGG,-0.064
25,CTGCTCTA,-0.0135

row,Sequence,PBM E-score
1,ACCTGTCA,0.0631
2,CACCTATG,-0.151
3,AAATCTAC,0.0226
4,ACGGGTGC,-0.0528
5,GCTGCCTA,0.305
6,CGGTAGTA,-0.0106
7,CCAGTCTA,0.164
8,GCTTGTGA,-0.0357
9,CGCCTTTA,0.0726
10,CAATTATA,0.17
11,GATCTAAC,-0.0971
12,AATTTTCT,0.13
13,AACAGTCT,-0.219
14,ACACGGGC,0.0876
15,AGTACTCC,-0.225
16,CGTCAGCA,0.0676
17,AATATATG,-0.0833
18,CGCCGAGA,0.153
19,CTTCGTCA,0.0238
20,CGATACAC,-0.128
21,CCCGCCAC,0.0688
22,TACGCCAA,-0.0641
23,AAAGGGCG,0.0478
24,ACACTGAC,-0.223
25,ATTTGAAC,0.0624

row,Sequence,PBM E-score
1,ATAAATCC,-0.0318
2,CCCGATTC,-0.13
3,AACAAAGT,-0.042
4,CCCCGGTC,-0.188
5,ACGAAGAC,-0.0542
6,CGCTCTGA,-0.0875
7,CATTGGGA,0.0332
8,AATCAATA,-0.0831
9,GATCCATC,-0.199
10,CATCAGCA,-0.00431
11,CGTGGCTA,0.0149
12,ACCGTTCG,-0.332
13,ACAGCGAA,-0.00628
14,TGAGAGCA,-0.0171
15,ATCATTAA,0.137
16,CCAGTTGC,0.199
17,TGCCCCCA,-0.142
18,TACAGTCA,-0.141
19,AACGAACC,-0.151
20,AACCAATA,0.172
21,AAGTGTTG,0.0206
22,CCCCTCCG,-0.0427
23,AGTACATC,-0.0279
24,ACAAAGTA,-0.0207
25,ATATTGCC,-0.0967

row,Sequence,PBM E-score
1,AACACACC,-0.0463
2,AGGCGCCC,0.384
3,CGACAGTA,-0.221
4,AGTGAATA,0.106
5,GGCGCAAC,0.161
6,AAAGTAAC,-0.0434
7,ACCTCTAG,-0.0718
8,AGTAATAC,0.0146
9,CGGCTGGA,0.0497
10,ACGCCCAA,0.202
11,AACTGTGC,-0.181
12,CAAGCTCC,-0.133
13,ACCAGTGC,-0.201
14,CGGTAAGA,-0.142
15,AAGTGAGT,-0.147
16,CCCACGGG,0.0888
17,TCAGAACA,-0.0507
18,GCTGTCAA,-0.165
19,AAGGAAGG,-0.0778
20,CACTAGTC,-0.017
21,GTGCACTA,-0.146
22,GCGAGTAA,-0.11
